{
  "source": "PubChem BioAssay AID651820",
  "about": "(National Center for Advancing Translational Sciences (NCATS), 2012)",
  "note": "About 12,000 (3.5%) of roughly 340,000 compounds were called active. Inconclusive means that the source gave no clear call. Such entries were picked first, then a sample of the others. Calls come from the whole dose curve; as a rule, active = well fitted inhibition curve with a large enough effect; inconclusive = small, poorly fitted or top-dose-only effect, or another doubt; inactive = no such curve, though single readings can be large or run the other way. No potency is given beside an inconclusive call; the fits are too rough. Potency is the fitted concentration of half-maximal effect; tags give direction and shape of the fitted curve.",
  "data": [
    {"assay": "qHTS Assay for Inhibitors of Hepatitis C Virus (HCV)", "details": "Huh7.5.1 HCVcc-Cre (HCVcc is cell-culture hepatitis C virus) infection, luciferase reporter, 44 h; series mostly up to 41.8 µM", "summary_of_the_method": "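A cell-based infection assay in which seeded cells (1,000 per well) receive test compound after 4 h, are inoculated with HCVcc-Cre at approximately 0.5 moi, and are incubated 44 h before luminescence detection.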", "values": [
      {"compound": "CNC(=O)N1CCC(C(=O)c2c(C)c(C)c(C)c(C)c2C)CC1", "Potency": "inactive"},
      {"compound": "CN1N=C(C(=O)NC2CCCc3c2cnn3-c2ccc(F)cc2F)CCC1=O", "note": "(stereo not given)", "Potency": "inconclusive [inhibitor, partial curve]"},
      {"compound": "COc1ccc(-c2cc(-c3ccccc3)nc(N3CCCC3)n2)cc1OC", "Potency": "active: 3.55 µM"},
      {"compound": "O=C(c1cccc2ccccc12)C1CCCN(C(=O)c2ccc(N3CCOCC3)cc2)C1", "note": "(stereo not given)", "Potency": "inconclusive [inhibitor, single point]"},
      {"compound": "CC(C)c1ccc2c(c1)C(c1ccc(N3CCOCC3)cc1)=NNC(c1cccs1)=N2", "Potency": "inconclusive [inhibitor, single point]"},
      {"compound": "Cc1ccc(/C=C(\\C#N)c2nn(-c3ccccc3)c(N)c2C#N)cc1", "Potency": "inconclusive [inhibitor, single point]"},
      {"compound": "CN1Cc2cccc3c2C(Cc2ccccc2S3)C1", "note": "(stereo not given)", "Potency": "inconclusive [inhibitor, single point]"},
      {"compound": "N#Cc1ccc(C(=O)N2CCC3CC2c2cc(-c4ccc(F)cc4)ccc23)cc1", "note": "(stereo not given)", "Potency": "active: 35.5 µM"},
      {"compound": "Cc1cc(NC(=O)/C=C/c2ccccc2Cl)n(-c2nc3ccccc3[nH]2)n1", "Potency": "inconclusive [inhibitor, partial curve]"},
      {"compound": "COCCC(=O)N1CCC(Oc2ccc(C(=O)NC3Cc4ccccc4C3)cc2)CC1", "Potency": "inconclusive [inhibitor, single point]"},
      {"compound": "CC(C)(C)OCC(O)CN1CCN(C(=O)c2ccccc2)CC1", "note": "(stereo not given)", "Potency": "inactive"},
      {"compound": "Cc1cc(NC(=O)c2cc([N+](=O)[O-])ccc2Cl)no1", "Potency": "inactive"},
      {"compound": "COC(CNc1cc(=O)oc2ccccc12)OC", "Potency": "inconclusive [inhibitor, single point]"},
      {"compound": "CCNC(=S)/N=C(/Nc1ccc(OC)cc1)Nc1nc(C)cc(C)n1", "Potency": "inconclusive [inhibitor, partial curve]"},
      {"compound": "CC[n+]1c(/C=C2/C=C(C)CC(C)C2)sc2ccccc21", "note": "(stereo not given)", "Potency": "active: 3.55 µM"},
      {"compound": "CCN(CC)c1cc(Oc2ccccc2)ncn1", "Potency": "inconclusive [inhibitor, full curve]"},
      {"compound": "CN(CCOc1ccc(-c2ccn(S(=O)(=O)c3ccc(Cl)cc3)n2)cc1)c1ccccn1", "Potency": "active: 1.12 µM"},
      {"compound": "CCOC(=O)c1c(C)[nH]c(C(=O)NCc2ccccn2)c1C", "Potency": "inconclusive [inhibitor, single point]"},
      {"compound": "C=CCn1c(C)cc(C(=O)CN2C(=O)NC3(CCCc4ccccc43)C2=O)c1C", "note": "(stereo not given)", "Potency": "inactive"},
      {"compound": "Cc1ccc(C2=Nc3ccccc3N=C(C(Cl)Cl)C2)cc1", "Potency": "inconclusive [inhibitor, partial curve]"},
      {"compound": "CN(C)CCNc1oc(COc2ccc(Cl)cc2Cl)nc1C#N", "Potency": "inactive"},
      {"compound": "CC1CCC(NC(=O)c2cc3c(s2)CCCC3)CC1", "note": "(stereo not given)", "Potency": "inconclusive [inhibitor, single point]"},
      {"compound": "COC(=O)c1cc(-c2ccc(OC)cc2)on1", "Potency": "inactive"},
      {"compound": "CN(CCCNC(=O)c1cccn2c(=O)c3ccccc3nc12)Cc1ccccc1", "Potency": "active: 11.2 µM"},
      {"compound": "CCc1ccc(CN2CCC(C(=O)Nc3ccc(-n4nc(C)cc4C)cc3)CC2)o1", "Potency": "inconclusive [inhibitor, single point]"},
      {"compound": "COc1ccccc1CNC(=O)C1(NC(=O)Nc2ccc(C)cc2)CCCCC1", "Potency": "inconclusive [inhibitor, single point]"},
      {"compound": "O=C(N/N=C/c1cccnc1)c1ccc(CN2c3cccc4cccc(c34)S2(=O)=O)cc1", "Potency": "inconclusive [inhibitor, single point]"},
      {"compound": "CCOC(=O)N1CCN(S(=O)(=O)c2ccc(C(=O)NNc3nc4ccc(Cl)cc4s3)cc2)CC1", "Potency": "active: 7.08 µM"},
      {"compound": "N#Cc1c(SCC(=O)Nc2cccc(C(F)(F)F)c2)sc2c(O)cc(=O)[nH]c12", "Potency": "inconclusive [inhibitor, single point]"},
      {"compound": "CC1CCN(C(=O)COC(=O)C2CCN(S(=O)(=O)c3ccc(Cl)c(C(F)(F)F)c3)CC2)CC1", "Potency": "inactive"},
      {"compound": "Nc1ccc2c(c1)C(=O)c1cc(N)c(Cl)cc1-2", "Potency": "active: 25.1 µM"},
      {"compound": "O=C(CCCN1CCC(C(=O)c2ccc(F)cc2)CC1)c1ccc(F)cc1", "Potency": "inconclusive [inhibitor, single point]"},
      {"compound": "O=C(NCc1ccccc1)c1nncc(-c2ccccc2)n1", "Potency": "inconclusive [inhibitor, full curve, poor fit]"},
      {"compound": "Cc1ccc(C(=O)N2CCN(c3ccccc3)CC2)cc1C", "Potency": "inconclusive [inhibitor, single point]"},
      {"compound": "O=C(NC1CC1)c1cccc(S(=O)(=O)N2CCOCC2)c1", "Potency": "inactive"},
      {"compound": "O=C(/C=C/c1cccs1)c1ccc(N2CCOCC2)cc1", "Potency": "inconclusive [inhibitor, partial curve]"},
      {"compound": "CCOc1ccc(CN=C(N)N=C(N)N)cc1Cl", "Potency": "inconclusive [inhibitor, partial curve]"},
      {"compound": "Cn1ncc([N+](=O)[O-])c1C(=O)Nc1ccc(-c2nc3ccccc3[nH]2)cc1", "Potency": "inconclusive [inhibitor, partial curve]"},
      {"compound": "CCOc1ccccc1/C=N/NC(=O)c1ccc(Cn2cc([N+](=O)[O-])cn2)o1", "Potency": "inactive"},
      {"compound": "COc1ccc(NS(=O)(=O)c2cccc(C(=O)O)c2)cc1S(=O)(=O)N1CCOCC1", "Potency": "inactive"},
      {"compound": "C=CC[C@@H](CC(=O)N[C@H](CO)Cc1ccccc1)C(=O)NCCOC(=O)[C@@H](CC=C)Cc1ccc(F)cc1", "Potency": "inconclusive [inhibitor, partial curve, poor fit]"},
      {"compound": "CC(=O)c1ccc(NC(=S)N(Cc2ccccc2)C(C)C2CC2)cc1", "note": "(stereo not given)", "Potency": "inconclusive [inhibitor, full curve, poor fit]"},
      {"compound": "CCC(C)OC(=O)c1c(N)n(Cc2cccs2)c2nc3ccccc3nc12", "note": "(stereo not given)", "Potency": "inconclusive [inhibitor, partial curve]"},
      {"compound": "COc1ccc(OCCCC(=O)N2CCN(S(=O)(=O)c3cccc(F)c3)CC2)cc1", "Potency": "inconclusive [inhibitor, full curve, poor fit]"},
      {"compound": "O=C(NCCc1ccccc1)c1noc2c1CCCCC2", "Potency": "inactive"}
    ]}
  ]
}
